Test results published in PubChem BioAssay AID651820 (National Center for Advancing Translational Sciences (NCATS), 2012).
In all, about 340,000 compounds went through this assay and about 12,000 (3.5%) were called active. Inconclusive results, whose numbers are uncertain, are shown with a selection of clear calls. Calls follow the shape of the dose curve; as a rule, active = well fitted inhibition curve with a large enough effect; inconclusive = small, poorly fitted or top-dose-only effect, or another doubt; inactive = no such curve, though single readings can be large or run the other way. No potency is given beside an inconclusive call; the fits are too rough.

Assay: qHTS Assay for Inhibitors of Hepatitis C Virus (HCV)
Conditions: Huh7.5.1 HCVcc-Cre (HCVcc is cell-culture hepatitis C virus) infection, luciferase reporter, 44 h; activity change, negative = inhibition: at 41.8 µM (top of the series) unless noted
Outline: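 Seed cells (1,000/well) for 4 h; treat with compound and infect with HCVcc-Cre, moi about 0.5. Incubate 44 h, then detect luciferase activity.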
% is scaled to controls: 0 for no effect and ±100 for the full control effect; potency is read from the fitted curve at half-maximal effect; tags tell the direction and shape of the fitted curve.

SMILES | Potency | activity change, negative = inhibition
Cc1nc2ccc3nc(NC(=O)c4ccc5c(c4)OCCO5)sc3c2s1 | inconclusive [inhibitor, full curve, poor fit] | –
O=C(CCN1C(=O)c2ccccc2C1=O)Nc1sc2c(c1C(=O)NCc1ccco1)CCCC2 | inconclusive [inhibitor, partial curve] | –
O=C(CSCc1cccc(CSCC(=O)Nc2ccc3ccccc3c2)n1)Nc1ccc2ccccc2c1 | active: 10 µM | –
CCOc1ccccc1-n1nnnc1SCC(=O)NCC1(N2CCOCC2)CCCCC1 | inconclusive [inhibitor, single point] | –
C/C(=N\NC(=O)c1c[nH]c2ccccc12)c1ccccn1 | inconclusive [inhibitor, partial curve] | –
O=C(NCC1CCCN1S(=O)(=O)c1cccs1)C(=O)Nc1ccc(F)cc1 (stereo not drawn) | – | inactive: -1.78% [at 8.37 µM]
COC(=O)/C=C1/SC(=NC(=O)c2ccc(F)cc2)NC1=O | inactive | –
Cc1ccc(NC(=O)CN2CCOCC2)cc1S(=O)(=O)N1CCCCC1 | inactive | –
C=C1C(=O)O[C@H]2C[C@]3(C)C([C@@H](OC(=O)/C(C)=C/C)[C@H]12)[C@](C)(O)CC[C@H]3O (stereo partly drawn) | inconclusive [inhibitor, single point] | –
Nc1ccc(-c2nc3cc(N)ccc3s2)cc1 | inconclusive [inhibitor, single point] | –
CCN(C[C@H]1N[C@@](Cc2ccccc2)(C(=O)OC)[C@H]2C(=O)N(C)C(=O)[C@@H]12)S(=O)(=O)c1ccc(OC(F)(F)F)cc1 | inconclusive [inhibitor, partial curve] | –
COc1ccc(-n2ncc3c2CC(C)(C)CC3NC(=O)CCn2nc(C)cc2C)cc1 (stereo not drawn) | inconclusive [inhibitor, partial curve] | –
CC[n+]1ccc(C)c2cc(S(=O)C(F)(F)F)ccc21 (stereo not drawn) | inactive | –
CCCCn1c(N)c(N(CC(C)C)C(=O)CSc2ccccc2C)c(=O)[nH]c1=O | inactive | –
Cc1cc(C(=O)CSc2nnc(-c3ccccc3)o2)c(C)n1CC1COc2ccccc2O1 (stereo not drawn) | inactive | –
COCc1cc(C)nc(SCC(=O)Nc2ccc3c(c2)OCCO3)c1C#N | inconclusive [inhibitor, partial curve] | –
O=C(N/N=C/c1ccccc1O)c1cccc(C(F)(F)F)c1 | active: 3.98 µM | –
COc1cc(C(=O)NC(=S)NCc2ccco2)cc(OC)c1OC | inconclusive [inhibitor, partial curve] | –
COc1ccc(C(=O)C(=NNc2ccccc2)c2ccc(OC)cc2)cc1 | inconclusive [inhibitor, partial curve] | –
Cc1ccc2c(c1)c(N=Nc1cccc(C(=O)O)c1)c(O)n2C | inconclusive [inhibitor, full curve, poor fit] | –
Cc1ccc(NC(=O)c2cnccn2)c(OC(F)F)c1 | active: 12.6 µM | –
c1ccc(-c2cc(-c3nc4ccccc4[nH]3)c3ccccc3n2)cc1 | inconclusive [inhibitor, single point] | –

SMILES | Potency | activity change, negative = inhibition
c1ccc2c(c1)CCN(Cc1nnnn1Cc1ccc3c(c1)OCO3)C2 | inactive | –
O=C(COc1ccccc1)NCC(=O)N/N=C/C=C/c1ccccc1 | inactive | –
CCCNC(=O)C1CN(S(=O)(=O)c2ccccc2)CCN1S(=O)(=O)c1ccccc1 (stereo not drawn) | inconclusive [inhibitor, partial curve] | –
O=S(=O)(NCCSCc1c(Cl)cccc1Cl)c1ccc2c(c1)OCCO2 | inconclusive [inhibitor, single point] | –
O=C(Nc1cccc(NC(=O)c2ccc(-c3ccc(Br)cc3)o2)c1)c1ccco1 | active: 6.31 µM | –
O=C(Nc1cccc(S(=O)(=O)N2CCOCC2)c1)c1ccc(N2CCCC2=O)cc1 | inconclusive [inhibitor, partial curve, poor fit] | –
CC12CCC(=O)N1C(C(=O)Nc1ccccc1N1CCCC1)CS2 (stereo not drawn) | inconclusive [inhibitor, full curve, poor fit] | –
CC(=O)CCc1c(C)c2cc(C)ccc2[nH]c1=O | inactive | –
O=C(CSc1nnc(Cc2cccs2)n1C1CCCCC1)N1CCCc2ccccc21 | inconclusive [inhibitor, single point] | –
COc1cc(/C=C(\C#N)C(=O)Nc2cc(C(F)(F)F)ccc2Cl)ccc1OCC(=O)Nc1cccc(C(F)(F)F)c1 | inconclusive [inhibitor, partial curve, poor fit] | –
C[C@H](CO)N1C[C@H](C)[C@@H](CN(C)S(=O)(=O)c2ccccc2)Oc2ccc(NC(=O)C3CC3)cc2C1=O | inactive | –
CN1CCN(C2Cc3ccc(F)cc3Sc3cc(F)c(Cl)cc32)CC1 (stereo not drawn) | inconclusive [inhibitor, partial curve] | –
COCCNC(=O)/C(C#N)=C/c1cccc(/C=C(\C#N)C(=O)NCCOC)c1 | active: 10 µM | –
C=CCOc1ccc(CN(C)C(=O)CNC(=O)c2ccc(-c3ccccc3)cc2)cc1 | active: 11.2 µM | –
Oc1[nH]c2ccccc2c1/C=N/N1CCCCC1 | inactive | –
CCOc1ccc(-c2cc(CCCC(=O)Nc3cccc(OC)c3)no2)cc1 | inconclusive [inhibitor, single point] | –
CC1CCCCN1CCNC(=O)c1ccc2c(=O)n(CCc3ccccc3)c(=O)[nH]c2c1 (stereo not drawn) | active: 11.2 µM | –
O=C(C[n+]1ccc2ccccc2c1)Nc1cc(C(F)(F)F)ccc1Cl | inconclusive [inhibitor, single point] | –
O=[N+]([O-])c1cccc(COc2ccccc2CN2CCCC2)c1 | inconclusive [inhibitor, single point] | –
Cc1cc(C(=O)COC(=O)c2cccnc2Cl)c(C)n1CC1CCCO1 (stereo not drawn) | inconclusive [inhibitor, single point] | –
CCOc1ccc(CCNC(=O)CSc2cc(=O)n(C)c3ccccc23)cc1OCC | inconclusive [inhibitor, single point] | –
